IC50 is the fitted dose that halves viability relative to control wells, and lower means more sensitive; a fit beyond the top or the lowest dose is shown as a bound at that dose. AUC, from the same fit, is the share of area under the viability curve across the 256-fold dose range: 1 means no effect, lower means more sensitive. For part of these data: A top dose marked as inferred was calculated from the reported fits. For part of these data: An entry number marks a drug with two screens in the source, which often give different values.
Experiments:
Test in all cases: Viability of human cancer cell lines after 72 h of drug (GDSC screen)
Thapsigargin = compound: C/C=C(/C)C(=O)O[C@H]1C(C)=C2[C@H]([C@@H]1OC(=O)CCCCCCC)[C@@](C)(OC(C)=O)C[C@H](OC(=O)CCC)[C@@]1(O)[C@H]2OC(=O)[C@@]1(C)O [Thapsigargin]; settings: top dose 0.512 µM; top dose inferred
Experimental: (§1)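 Human cancer cell lines in 384-well plates, medium with 10% serum, drug for 72 h over a 256-fold dose range (nine 2-fold or five 4-fold steps up to the top dose). Adherent lines were fixed and stained with the nucleic acid dye Syto60, suspension lines read with resazurin; signal relative to control wells, capped at 0 and 100%. One two-parameter sigmoid per drug and line, fitted in a mixed model over all curves with the slope shared within a line.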

QL-X-138 = compound: C=CC(=O)Nc1cc(-n2c(=O)ccc3cnc4ccc(-c5cn[nH]c5)cc4c32)ccc1C [QL-X-138]; settings: top dose 10.24 µM; top dose inferred
Experimental: as §1

GSK269962A = compound: CCn1c(-c2nonc2N)nc2cnc(Oc3cccc(NC(=O)c4ccc(OCCN5CCOCC5)cc4)c3)cc21 [GSK269962A]; settings: top dose inferred
Experimental: as §1

MPS-1-IN-1 = compound: COc1cc(N2CCC(O)CC2)ccc1Nc1cc(Nc2ccccc2S(=O)(=O)C(C)C)c2cc[nH]c2n1 [MPS-1-IN-1]; settings: top dose 20 µM; top dose inferred
Experimental: as §1

(5Z)-7-Oxozeaenol = compound: COc1cc(O)c2c(c1)/C=C/C[C@H](O)[C@H](O)C(=O)/C=C\C[C@H](C)OC2=O [(5Z)-7-Oxozeaenol]; settings: top dose 10 µM; top dose inferred
Experimental: as §1

CP466722 = compound: COc1cc2ncnc(-n3nc(-c4ccccn4)nc3N)c2cc1OC [CP466722]; settings: top dose 16 µM; top dose inferred
Experimental: as §1

Zibotentan = compound: COc1nc(C)cnc1NS(=O)(=O)c1cccnc1-c1ccc(-c2nnco2)cc1 [Zibotentan]; settings: top dose 20 µM; top dose inferred
Experimental: as §1

ABT-888 = compound: C[C@]1(c2nc3c(C(N)=O)cccc3[nH]2)CCCN1 [ABT-888]; settings: top dose 5 µM; top dose inferred
Experimental: as §1

CMK = compound: Cc1ccc(-c2c(C(=O)CCl)n(CCCO)c3ncnc(N)c23)cc1 [CMK]; settings: top dose 4 µM; top dose inferred
Experimental: as §1

ABT-869 = compound: Cc1ccc(F)c(NC(=O)Nc2ccc(-c3cccc4[nH]nc(N)c34)cc2)c1 [ABT-869]; settings: top dose 1.024 µM; top dose inferred
Experimental: as §1

CHIR-99021 = compound: Cc1cnc(-c2cnc(NCCNc3ccc(C#N)cn3)nc2-c2ccc(Cl)cc2Cl)[nH]1 [CHIR-99021]
Experimental: as §1

Cytarabine = compound: Nc1ccn([C@@H]2O[C@H](CO)[C@@H](O)[C@@H]2O)c(=O)n1 [Cytarabine]; settings: top dose 2 µM
Experimental: as §1

KU-55933 = compound: O=c1cc(-c2cccc3c2Sc2ccccc2S3)oc(N2CCOCC2)c1 [KU-55933]; settings: top dose 10 µM
Experimental: as §1

[1] = top dose 2.5 µM, screen: GDSC drug entry 127
[2] = top dose 5 µM, screen: GDSC drug entry 1192
[3] = top dose 2.56 µM, screen: GDSC drug entry 154
[4] = top dose 10 µM, screen: GDSC drug entry 1241, top dose inferred

With DEL (lymphoid neoplasm, suspension) the AUC (Thapsigargin) was 0.302, the IC50 (Thapsigargin) was 0.0102 µM and the AUC (QL-X-138) was 0.427. The IC50 (QL-X-138) was 0.422 µM, the AUC (GSK269962A; [1]) was 0.951 and the IC50 (GSK269962A; [1]) was greater than 2.5 µM. The AUC (GSK269962A; [2]) was 0.95, the IC50 (GSK269962A; [2]) was greater than 5 µM and the AUC (MPS-1-IN-1) was 0.346. For the same cell line, the IC50 (MPS-1-IN-1) was 0.518 µM, the AUC ((5Z)-7-Oxozeaenol) was 0.754 and the IC50 ((5Z)-7-Oxozeaenol) was 2.74 µM. For the same cell line, the AUC (CP466722) was 0.705, the IC50 (CP466722) was 3.27 µM and the AUC (Zibotentan) was 0.992. It also gave an IC50 (Zibotentan) greater than 20 µM, an AUC (ABT-888) of 0.993 and an IC50 (ABT-888) greater than 5 µM. The AUC (CMK) was 0.789, the IC50 (CMK) was 1.37 µM and the AUC (ABT-869) was 0.994. It also gave an IC50 (ABT-869) greater than 1.02 µM, an AUC (CHIR-99021; [3]) of 0.994 and an IC50 (CHIR-99021; [3]) greater than 2.56 µM. It also gave an AUC (CHIR-99021; [4]) of 0.986, an IC50 (CHIR-99021; [4]) greater than 10 µM and an AUC (Cytarabine) of 0.974. It also gave an IC50 (Cytarabine) greater than 2 µM, an AUC (KU-55933) of 0.961 and an IC50 (KU-55933) greater than 10 µM.
With DG-75 (Burkitt lymphoma, suspension) the AUC (Thapsigargin) was 0.896, the IC50 (Thapsigargin) was greater than 0.512 µM and the AUC (QL-X-138) was 0.863. The IC50 (QL-X-138) was 9.06 µM, the AUC (GSK269962A; [1]) was 0.955 and the IC50 (GSK269962A; [1]) was greater than 2.5 µM. For the same cell line, the AUC (GSK269962A; [2]) was 0.903, the IC50 (GSK269962A; [2]) was greater than 5 µM and the AUC (MPS-1-IN-1) was 0.943. It also gave an IC50 (MPS-1-IN-1) greater than 20 µM, an AUC ((5Z)-7-Oxozeaenol) of 0.683 and an IC50 ((5Z)-7-Oxozeaenol) of 2.05 µM. For the same cell line, the AUC (CP466722) was 0.813, the IC50 (CP466722) was 8.8 µM and the AUC (Zibotentan) was 0.981. It also gave an IC50 (Zibotentan) greater than 20 µM, an AUC (ABT-888) of 0.983 and an IC50 (ABT-888) greater than 5 µM. The AUC (CMK) was 0.938, the IC50 (CMK) was greater than 4 µM and the AUC (ABT-869) was 0.987. The IC50 (ABT-869) was greater than 1.02 µM, the AUC (CHIR-99021; [3]) was 0.982 and the IC50 (CHIR-99021; [3]) was greater than 2.56 µM. It also gave an AUC (CHIR-99021; [4]) of 0.944, an IC50 (CHIR-99021; [4]) greater than 10 µM and an AUC (Cytarabine) of 0.762. The IC50 (Cytarabine) was 0.722 µM, the AUC (KU-55933) was 0.832 and the IC50 (KU-55933) was 6.53 µM.
“DMS-79 (small cell lung carcinoma, suspension)” was tested, and the AUC (Thapsigargin) was 0.95, the IC50 (Thapsigargin) was greater than 0.512 µM and the AUC (QL-X-138) was 0.981. It also gave an IC50 (QL-X-138) greater than 10.2 µM, an AUC (GSK269962A; [1]) of 0.982 and an IC50 (GSK269962A; [1]) greater than 2.5 µM. For the same cell line, the AUC (GSK269962A; [2]) was 0.906, the IC50 (GSK269962A; [2]) was greater than 5 µM and the AUC (MPS-1-IN-1) was 0.986. It also gave an IC50 (MPS-1-IN-1) greater than 20 µM, an AUC ((5Z)-7-Oxozeaenol) of 0.966 and an IC50 ((5Z)-7-Oxozeaenol) greater than 10 µM. The AUC (CP466722) was 0.93, the IC50 (CP466722) was greater than 16 µM and the AUC (Zibotentan) was 0.953. It also gave an IC50 (Zibotentan) greater than 20 µM, an AUC (ABT-888) of 0.987 and an IC50 (ABT-888) greater than 5 µM. The AUC (CMK) was 0.96, the IC50 (CMK) was greater than 4 µM and the AUC (ABT-869) was 0.973. For the same cell line, the IC50 (ABT-869) was greater than 1.02 µM, the AUC (CHIR-99021; [3]) was 0.987 and the IC50 (CHIR-99021; [3]) was greater than 2.56 µM. It also gave an AUC (CHIR-99021; [4]) of 0.986, an IC50 (CHIR-99021; [4]) greater than 10 µM and an AUC (Cytarabine) of 0.987. It also gave an IC50 (Cytarabine) greater than 2 µM, an AUC (KU-55933) of 0.986 and an IC50 (KU-55933) greater than 10 µM.
In the case of “DMS-114 (small cell lung carcinoma, adherent)”, the AUC (Thapsigargin) is reported as 0.871, the IC50 (Thapsigargin) is reported as greater than 0.512 µM and the AUC (QL-X-138) is reported as 0.574. It also gave an IC50 (QL-X-138) of 1.06 µM, an AUC (GSK269962A; [1]) of 0.975 and an IC50 (GSK269962A; [1]) greater than 2.5 µM. The AUC (GSK269962A; [2]) was 0.973, the IC50 (GSK269962A; [2]) was greater than 5 µM and the AUC (MPS-1-IN-1) was 0.926. It also gave an IC50 (MPS-1-IN-1) greater than 20 µM, an AUC ((5Z)-7-Oxozeaenol) of 0.684 and an IC50 ((5Z)-7-Oxozeaenol) of 2.22 µM. For the same cell line, the AUC (CP466722) was 0.907, the IC50 (CP466722) was greater than 16 µM and the AUC (Zibotentan) was 0.985. The IC50 (Zibotentan) was greater than 20 µM, the AUC (ABT-888) was 0.985 and the IC50 (ABT-888) was greater than 5 µM. The AUC (CMK) was 0.984, the IC50 (CMK) was greater than 4 µM and the AUC (ABT-869) was 0.985. For the same cell line, the IC50 (ABT-869) was greater than 1.02 µM, the AUC (CHIR-99021; [3]) was 0.98 and the IC50 (CHIR-99021; [3]) was greater than 2.56 µM. It also gave an AUC (CHIR-99021; [4]) of 0.971, an IC50 (CHIR-99021; [4]) greater than 10 µM and an AUC (Cytarabine) of 0.777. It also gave an IC50 (Cytarabine) of 0.926 µM, an AUC (KU-55933) of 0.979 and an IC50 (KU-55933) greater than 10 µM.

Reference: the supplement of paper PMC4967469
